Results: PubChem BioAssay AID651820 (National Center for Advancing Translational Sciences (NCATS), 2012)
Values joined by “and” are separate entries in the source; they are usually repeats but may differ in a detail not shown here. Equal values may be shown once. In all, about 340,000 compounds went through this assay and about 12,000 (3.5%) were called active. The inconclusive results got no clear call from the source; some entries with a clear call stand among them for comparison. Calls follow the shape of the dose curve; as a rule, active = well fitted inhibition curve with a large enough effect; inconclusive = small, poorly fitted or top-dose-only effect, or another doubt; inactive = no such curve, though single readings can be large or run the other way. A potency beside an inconclusive call is a rough fit, not a confirmed value. Some structures have more than one record in an assay (separate samples or runs), and their calls can disagree.

Test: qHTS Assay for Inhibitors of Hepatitis C Virus (HCV)
Settings: Huh7.5.1 HCVcc-Cre (HCVcc is cell-culture hepatitis C virus) infection, luciferase reporter, 44 h; series mostly up to 41.8 µM
In short: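 After 44 h co-culture of compound, cells and HCVcc-Cre (~0.5 moi), substrate is added for 15 min at room temperature and luciferase measured over 15 sec. Cells were seeded at 1,000/well and pre-cultured 4 h.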
Potency is read from the fitted curve at half-maximal effect; tags tell the direction and shape of the fitted curve.

Row | Compound | Potency
1 | CCOC(=O)[C@H]1[C@H]2COc3ccc(Br)cc3[C@H]2N2C(=O)CN(Cc3ccc(C)cc3)C(=O)[C@@]12C | inconclusive: 31.6 µM [inhibitor, single point]
2 | O=[N+]([O-])c1cc(-c2ccc(/C=N\n3cnnc3)o2)cc([N+](=O)[O-])c1 | inconclusive: 1.26 µM [inhibitor, partial curve]
3 | COc1ccc(OC)c(/C=N/NC2=NS(=O)(=O)c3ccccc32)c1 | inactive
4 | Clc1ccccc1COc1ccccc1-c1nnco1 | inconclusive: 31.6 µM [inhibitor, single point]
5 | O=C(CSc1ccc(-c2ccccc2)nn1)N1CCOCC1 | inactive
6 | CCN(CC)S(=O)(=O)c1ccc(Cl)c(NC(=O)c2ccccc2C)c1 | inconclusive: 2 µM [inhibitor, full curve, poor fit]
7 | O=C(CCC1COc2ccccc2O1)Nc1ccc(Cl)cn1 (stereo unspecified) | inconclusive: 22.4 µM [inhibitor, single point]
8 | CCOc1cc(NC(=S)NCC2CCCO2)c(OCC)cc1NC(=O)c1cccc(C)c1 (stereo unspecified) | inconclusive: 2.24 µM [inhibitor, full curve, poor fit]
9 | CCCNC(=O)c1ccc2c(=O)c(O)c(-c3ccsc3)[nH]c2c1 | inconclusive: 3.98 µM [inhibitor, full curve, poor fit]
10 | COc1cc2c(cc1OC)C(c1ccccc1)N(C(=O)c1ccco1)CC2 (stereo unspecified) | inactive
11 | O=C1C=C(c2cccc3c2sc2ccccc23)C[C@@H](c2ccc(Cl)cc2)C1 | inactive
12 | C/C(=N\NC(=O)c1ccc(NS(=O)(=O)c2cccs2)cc1)c1ccc2ccccc2c1 | inconclusive: 8.91 µM [inhibitor, partial curve]
13 | COc1cc(NS(=O)(=O)c2ccc(Br)cc2)c(OC)cc1NC(=O)c1ccco1 | inconclusive: 11.2 µM [inhibitor, partial curve]
14 | Cc1cc2ccccc2c(=O)n1CC(=O)NC1CCCCCC1 | inconclusive: 31.6 µM [inhibitor, single point]
15 | COc1ccc(COC(=O)C2=C(C)NC(=O)NC2c2cccc(OC)c2OC)cc1 (stereo unspecified) | inconclusive: 11.2 µM [inhibitor, single point]
16 | COc1ccc(-c2sc3ccc(N4CCOCC4)cc3c2C#CC(C)(C)O)cc1 | inconclusive: 2.24 µM [inhibitor, full curve]
17 | Cc1ccccc1/C=C/C12NC(=O)CN1c1ccccc1C2(C)C (stereo unspecified) | inactive
18 | Cc1cccc(-c2nc(CSCC(=O)NCCCN3CCOCC3)c(C)o2)c1 | inconclusive: 20 µM [inhibitor, partial curve]
19 | CCOc1cc(C(=O)Nc2ccc(C)cc2O)ccc1OCC(=O)N1CCOCC1 | inconclusive: 7.94 µM [inhibitor, partial curve]
20 | CCN1CCN(Cc2ccc(NC(=O)c3ccc(C)c(NC(=O)c4ccc5n[nH]nc5c4)c3)cc2C(F)(F)F)CC1 | inactive
21 | O=C1C2C3C=CC(O3)C2C(=O)N1Nc1ccccc1 (stereo unspecified) | inactive
22 | COc1ccc(Cl)cc1NC(=O)NC1CCCCC1 | inconclusive: 31.6 µM [inhibitor, single point]
23 | CC(C)(C)c1ccc(NC(=O)NCc2ccco2)cc1 | inconclusive: 10 µM [inhibitor, partial curve]
24 | Cc1cccc(C)c1NC(=O)CCCSc1nnc(-c2ccc(Cl)cc2)n1-c1ccccc1 | inconclusive: 31.6 µM [inhibitor, single point]

Row | Compound | Potency
25 | CCN(CC)CCNC(=O)c1cc2c(-c3cccc(OC)c3)nn(C)c2s1 | active: 12.6 µM
26 | Cc1cccc(N(Cc2ccccc2)C(=O)c2ccc(C)c(S(=O)(=O)N3CCOCC3)c2)c1 | inconclusive: 25.1 µM [inhibitor, single point]
27 | CCOC(=O)NC(=O)C(/C=N/c1sccc1C(=O)OC)=C(\C)O | active: 0.562 µM
28 | COc1ccccc1CC(=O)Nc1ccc2c(c1)OC1(CCCC1)O2 | active: 12.6 µM
29 | CCCCCNC(=O)Cc1cc(=O)[nH]c(=O)[nH]1 | inactive
30 | CCOc1ccc(-c2cc(C(=O)N3CCN(c4ccccn4)CC3)c3ccccc3n2)cc1 | active: 7.08 µM
31 | Cc1nn(C(C)C(=O)NCc2ccco2)c(=O)c2nn(-c3ccccc3)c(C)c12 (stereo unspecified) | inactive
32 | CCOC(=O)C1=C(SCC)c2cc3c(n2C1=O)CCCC3 | inconclusive: 7.08 µM [inhibitor, partial curve]
33 | CCCCN(C)C(=O)CSc1nc(NCc2ccc(OC)cc2)c2ccccc2n1 | inconclusive: 22.4 µM [inhibitor, single point]
34 | O=C(NNC(=S)Nc1cccc(Cl)c1)c1ccccc1OC(F)F | inconclusive: 31.6 µM [inhibitor, single point]
35 | COc1ccccc1CCNC(=O)C(=O)NCC1OCCN1S(=O)(=O)c1ccc(OC)c(OC)c1 (stereo unspecified) | inactive
36 | COc1ccc(-c2sc3ccc(OC)cc3c2C#Cc2cncn2C)cc1 | active: 2.82 µM
37 | COc1ccc(-c2cc(C3CCN(c4cc(Cl)nc(N)n4)CC3)[nH]n2)cc1 | inconclusive: 31.6 µM [inhibitor, single point]
38 | CCN1CCc2c(OCC(=O)N3N=C(c4cccs4)CC3c3ccc(F)cc3)cccc2C1=O (stereo unspecified) | active: 10 µM
39 | Cc1cnc(NC(=O)CSc2ncc(-c3ccccc3)n2Cc2ccco2)s1 | inconclusive: 10 µM [inhibitor, partial curve]
40 | O=c1cc(CN2CCN(C/C=C/c3ccccc3)CC2)c2cc(O)c(-c3ccccc3)cc2o1 | inconclusive: 1.41 µM [inhibitor, full curve]
41 | Cn1c(O)c(/C=N/NC(=O)c2cc3ccccc3cc2O)c2ccccc21 | inconclusive: 22.4 µM [inhibitor, single point]
42 | COc1cc(Cl)cc(/C=N/NC(N)=O)c1O | inactive
43 | CCC(C)[C@H]1CNC(=S)N1CCc1cccc2ccccc12 (stereo partly specified) | inconclusive: 22.4 µM [inhibitor, single point]
44 | Cc1nnc(SCC(=O)Nc2ccc3c4c(cccc24)CC3)n1C | inactive
45 | COc1ccc(NC(=O)c2ccc(Cc3ccc(C)cc3)o2)cc1 | inconclusive: 20 µM [inhibitor, single point]
46 | Cc1sc2nc(C)n(/N=C/c3ccc(O)cc3O)c(=O)c2c1C | inconclusive: 3.55 µM [inhibitor, full curve]
47 | COc1ccc(C2Nc3ccccc3C(=O)N2Cc2ccco2)cc1COc1ccc(NC(C)=O)cc1 (stereo unspecified) | inconclusive: 31.6 µM [inhibitor, single point] and inconclusive: 10 µM [inhibitor, partial curve]
48 | COc1ccc(C(C)=O)cc1COC(=O)c1c(C)nn(-c2ccccc2)c1C | inconclusive: 10 µM [inhibitor, partial curve]

Row | Compound | Potency
49 | CCOc1cc(C(=O)N/N=C/c2ccsc2)cc(OCC)c1OCC | inconclusive: 1 µM [inhibitor, full curve]
50 | O=C(O)c1cccc(NS(=O)(=O)c2ccc3c(c2)C(=O)c2ccccc2C3=O)c1 | inactive
51 | CC1CCN(S(=O)(=O)c2cc(C(=O)N3CCN(c4ncccn4)CC3)ccc2Br)CC1 | inconclusive: 11.2 µM [inhibitor, partial curve]
52 | Cc1ccc(Nc2cc(C)nc(NCc3ccccc3)n2)cc1 | active: 10 µM
53 | COc1ccc2c(c1)nc(NCCCO)n2Cc1ccccc1 | inactive
54 | O=C1CCCc2oc3c(c21)CCCC3 | inactive
55 | Cc1ccccc1/C(N)=N/O | inactive
56 | CCCCNC(=O)c1nn2c(C(F)(F)F)cc(-c3ccccc3)nc2c1Br | inconclusive: 1.78 µM [inhibitor, full curve]
57 | FC(F)(F)c1cccc(-c2nnc(-c3ccccc3)c(N3CCOCC3)n2)c1 | active: 10 µM
58 | COc1ccc(OC[C@@H](O)CNC(=O)c2cccc3c2C(=O)c2ccc(-c4ccc(F)cc4OCc4ccccc4)cc2S3(=O)=O)cc1 | inconclusive: 7.94 µM [inhibitor, partial curve]
59 | COc1cccc(NC(=O)N2CCN(c3cccc(C)c3C)CC2)c1 | inconclusive: 28.2 µM [inhibitor, single point]
60 | CCOC(=O)c1c(CSc2ccccc2)n(C)c2cc(Br)c(O)c(CN(C)C)c12 | inconclusive: 31.6 µM [inhibitor, single point]
61 | C=CCN(C(=O)CCc1ccccc1OC)c1nc(-c2ccc(S(C)(=O)=O)cc2)cs1 | inconclusive: 10 µM [inhibitor, single point]
62 | O=C(/C=C/Nc1ccccc1)c1ccccc1 | inactive
63 | CCCCn1c(SCC(N)=O)nc2c(sc3ccccc32)c1=O | inconclusive: 10 µM [inhibitor, partial curve]
64 | Cc1ccc(S(=O)(=O)N2CCOCC2)cc1NC(=O)COc1cccc(-n2cnnn2)c1 | inactive
65 | CC(C)(C)C(=O)NC(=S)NNC(=O)c1ccc(Cl)cc1Cl | inconclusive: 11.2 µM [inhibitor, partial curve]
66 | CCN(CC)CC(O)c1ccc(C2CCCC2)cc1 (stereo unspecified) | inconclusive: 10 µM [inhibitor, partial curve]
67 | CCOC(=O)Nc1sc2c(c1C#N)CCC(C)C2 (stereo unspecified) | inactive
68 | O=C(Nc1ccccc1-c1nc2ccccc2s1)c1cccnc1 | inconclusive: 7.08 µM [inhibitor, partial curve]
69 | COc1ccccc1C(C)Nc1nc(-c2cccnc2)nc2ccccc12 (stereo unspecified) | inconclusive: 11.2 µM [inhibitor, single point]
70 | COc1ccc(-c2n[nH]c(C)c2-c2cnn(-c3ccccc3)c2)c(O)c1C | active: 11.2 µM
71 | CCCCOc1ccc(S(=O)(=O)Nc2ccc(NC(C)=O)cc2)cc1 | active: 8.91 µM
